In publication PMC9911399, “Two distinct binding modes provide the RNA-binding protein RbFox with extraordinary sequence specificity”:
Positions count from the first letter of the chain named. The list shows a part of the results.

T1: RBFOX1 RRM RbFoxmut (Fox-RRM*) (Homo sapiens, UniProt Q9NWB1 109-208, R118D;E147R;N151S;E152T)
T1 sequence: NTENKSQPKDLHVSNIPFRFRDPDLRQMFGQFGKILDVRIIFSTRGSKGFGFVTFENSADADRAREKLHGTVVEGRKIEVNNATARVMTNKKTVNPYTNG

B1: CGUAACC (DNA:RNA)
RNA: GGGAGACCGGAAUUCAGAUUGUCCCGUAACCUUAAAUCCCGUCGUAGCCACCA
DNA 1: CAATCTGAATTCCGGTCTCCC
DNA 2: TGGTGGCTACGACGGGATT
B2: GCCAGCA (DNA:RNA)
RNA: B1 RNA with C25G, G26C, U27C, A29G, C31A
DNA 1: CAATCTGAATTCCGGTCTCCC
DNA 2: TGGTGGCTACGACGGGATT
B3: GGACAUC (DNA:RNA)
RNA: B1 RNA with C25G, U27A, A28C, C30U
DNA 1: CAATCTGAATTCCGGTCTCCC
DNA 2: TGGTGGCTACGACGGGATT
B4: CUGCGCC (DNA:RNA)
RNA: B1 RNA with G26U, U27G, A28C, A29G
DNA 1: CAATCTGAATTCCGGTCTCCC
DNA 2: TGGTGGCTACGACGGGATT
B5: AACUCCG (DNA:RNA)
RNA: B1 RNA with C25A, G26A, U27C, A28U, A29C, C31G
DNA 1: CAATCTGAATTCCGGTCTCCC
DNA 2: TGGTGGCTACGACGGGATT
B6: CUAGGGA (DNA:RNA)
RNA: B1 RNA with G26U, U27A, A28G, A29G, C30G, C31A
DNA 1: CAATCTGAATTCCGGTCTCCC
DNA 2: TGGTGGCTACGACGGGATT
B7: AGAACUU (DNA:RNA)
RNA: B1 RNA with C25A, U27A, A29C, C30U, C31U
DNA 1: CAATCTGAATTCCGGTCTCCC
DNA 2: TGGTGGCTACGACGGGATT
B8: UAUGGUC (DNA:RNA)
RNA: B1 RNA with C25U, G26A, A28G, A29G, C30U
DNA 1: CAATCTGAATTCCGGTCTCCC
DNA 2: TGGTGGCTACGACGGGATT
B9: UGUUACA (DNA:RNA)
RNA: B1 RNA with C25U, A28U, C31A
DNA 1: CAATCTGAATTCCGGTCTCCC
DNA 2: TGGTGGCTACGACGGGATT
B10: UACCCAA (DNA:RNA)
RNA: GGGAGACCGGAAUUCAGAUUGUCCUACCCAAUUAAAUCCCGUCGUAGCCACCA
DNA 1: CAATCTGAATTCCGGTCTCCC
DNA 2: TGGTGGCTACGACGGGATT
B11: UGUCCUU (DNA:RNA)
RNA: B10 RNA with A26G, C27U, A30U, A31U
DNA 1: CAATCTGAATTCCGGTCTCCC
DNA 2: TGGTGGCTACGACGGGATT
B12: UCUAUGU (DNA:RNA)
RNA: B1 RNA with C25U, G26C, A29U, C30G, C31U
DNA 1: CAATCTGAATTCCGGTCTCCC
DNA 2: TGGTGGCTACGACGGGATT
B13: CACAGCC (DNA:RNA)
RNA: B1 RNA with G26A, U27C, A29G
DNA 1: CAATCTGAATTCCGGTCTCCC
DNA 2: TGGTGGCTACGACGGGATT
B14: GUCGCUC (DNA:RNA)
RNA: B10 RNA with U25G, A26U, C28G, A30U, A31C
DNA 1: CAATCTGAATTCCGGTCTCCC
DNA 2: TGGTGGCTACGACGGGATT
B15: ACUGAAA (DNA:RNA)
RNA: B1 RNA with C25A, G26C, A28G, C30A, C31A
DNA 1: CAATCTGAATTCCGGTCTCCC
DNA 2: TGGTGGCTACGACGGGATT
B16: GGCGCCU (DNA:RNA)
RNA: B1 RNA with C25G, U27C, A28G, A29C, C31U
DNA 1: CAATCTGAATTCCGGTCTCCC
DNA 2: TGGTGGCTACGACGGGATT
B17: UGGCGCA (DNA:RNA)
RNA: B10 RNA with A26G, C27G, C29G, A30C
DNA 1: CAATCTGAATTCCGGTCTCCC
DNA 2: TGGTGGCTACGACGGGATT
B18: UUGUUGC (DNA:RNA)
RNA: B1 RNA with C25U, G26U, U27G, A28U, A29U, C30G
DNA 1: CAATCTGAATTCCGGTCTCCC
DNA 2: TGGTGGCTACGACGGGATT
B19: AGGAGAG (DNA:RNA)
RNA: B1 RNA with C25A, U27G, A29G, C30A, C31G
DNA 1: CAATCTGAATTCCGGTCTCCC
DNA 2: TGGTGGCTACGACGGGATT
B20: CCCUCCG (DNA:RNA)
RNA: B1 RNA with G26C, U27C, A28U, A29C, C31G
DNA 1: CAATCTGAATTCCGGTCTCCC
DNA 2: TGGTGGCTACGACGGGATT

target: T1, RBFOX1 RRM RbFoxmut (Fox-RRM*); test: EMSA; HiTS-Eq, 1 nM pool, 10 min; buffer printed only for the single-RNA assays: 10 mM Tris pH 7.5, 150 mM NaCl, 3.4 mM EDTA, 0.001% NP-40, 30 C; settings: tags: His6 N-terminal (pET28a); label: 5' 32P
Summary of the method: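 A pool of RNA with 7 randomized nucleotides, 5′-radiolabelled and with DNA-annealed flanks, was equilibrated at 1 nM for 10 min in 50 µL with purified RbFox RRM, wild type or mutant, across increasing protein concentrations. Free RNA was separated by 8% native PAGE, excised, reverse-transcribed, barcoded by PCR and sequenced. Relative association constants were obtained from read-count changes of each RNA species versus the control reaction and normalised to the cognate motif.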

| Binder | binding signal |
| --- | --- |
| B1 | 0.077 KA relative to UGCAUGU |
| B2 | 0.112 KA relative to UGCAUGU |
| B3 | 0.164 KA relative to UGCAUGU |
| B4 | 0.221 KA relative to UGCAUGU |
| B5 | 0.0558 KA relative to UGCAUGU |
| B6 | 0.0532 KA relative to UGCAUGU |
| B7 | 0.0698 KA relative to UGCAUGU |
| B8 | 0.156 KA relative to UGCAUGU |
| B9 | 0.109 KA relative to UGCAUGU |
| B10 | 0.0796 KA relative to UGCAUGU |
| B11 | 0.0794 KA relative to UGCAUGU |
| B12 | 0.161 KA relative to UGCAUGU |
| B13 | 0.078 KA relative to UGCAUGU |
| B14 | 0.0832 KA relative to UGCAUGU |
| B15 | 0.0571 KA relative to UGCAUGU |
| B16 | 0.0758 KA relative to UGCAUGU |
| B17 | 0.166 KA relative to UGCAUGU |
| B18 | 0.148 KA relative to UGCAUGU |
| B19 | 0.129 KA relative to UGCAUGU |
| B20 | 0.0774 KA relative to UGCAUGU |
